US20200270335A1 (Biogen, published 2020)

T1: Recombinant human Kremen-2 (R&D Systems), biotinylated (human, UniProt Q8NCW0 26-364, limits assumed, biotinylated with EZ-Link NHS-PEG4-Biotin)
T1 construct: Bought protein; also called Kremen-biotin
T1 sequence (looked up): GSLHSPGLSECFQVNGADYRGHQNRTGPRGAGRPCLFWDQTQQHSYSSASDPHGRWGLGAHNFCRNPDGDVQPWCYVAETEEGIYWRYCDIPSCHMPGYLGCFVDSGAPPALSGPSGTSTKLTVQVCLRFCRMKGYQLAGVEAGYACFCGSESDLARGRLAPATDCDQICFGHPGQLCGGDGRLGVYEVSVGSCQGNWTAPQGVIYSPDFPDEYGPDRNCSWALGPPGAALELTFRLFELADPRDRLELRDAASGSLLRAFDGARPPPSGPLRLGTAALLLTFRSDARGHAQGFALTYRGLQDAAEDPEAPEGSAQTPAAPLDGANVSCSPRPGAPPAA

B1: ACE486 HSA-GS-huDKK2 C2 ([…]), HSA […], wild-type (ligand)
chain: [skipping about 600 residues]GSHIKGHEGDPCLRSSDCIEGFCCARHFWTKICKPVLHQGEVCTKQRKKGSHGLEIFQRCDCAKGLSCKVWKDATYSSKARLHVCQKI
notes: From CHO cells; also called pACE486; HSA-hu DKK2 […] C2 […]
B2: ACE502 HSA-huDKK2 C2 R185N (ligand)
chain: [skipping about 600 residues]GSHIKGHEGDPCLNSSDCIEGFCCARHFWTKICKPVLHQGEVCTKQRKKGSHGLEIFQRCDCAKGLSCKVWKDATYSSKARLHVCQKI
notes: R185N was designed as a glycosylation motif; also called pACE502
B3: ACE503 HSA-huDKK2 C2 K202E/K220E (ligand)
chain: [skipping about 600 residues]GSHIKGHEGDPCLRSSDCIEGFCCARHFWTEICKPVLHQGEVCTKQRKEGSHGLEIFQRCDCAKGLSCKVWKDATYSSKARLHVCQKI
notes: ACE486 framework; residues 1-20 are the signal peptide; also called pACE503
B4: ACE504 HSA-huDKK2 C2 K240E/K243E (ligand)
chain: [skipping about 600 residues]GSHIKGHEGDPCLRSSDCIEGFCCARHFWTKICKPVLHQGEVCTKQRKKGSHGLEIFQRCDCAKGLSCEVWEDATYSSKARLHVCQKI
notes: also called pACE504
B5: ACE505 HSA-huDKK2 C2 K216E/K250E (ligand)
chain: [skipping about 600 residues]GSHIKGHEGDPCLRSSDCIEGFCCARHFWTKICKPVLHQGEVCTEQRKKGSHGLEIFQRCDCAKGLSCKVWKDATYSSEARLHVCQKI
notes: also called pACE505
B6: ACE506 HSA-huDKK2 C2 K250E (ligand)
chain: [skipping about 600 residues]GSHIKGHEGDPCLRSSDCIEGFCCARHFWTKICKPVLHQGEVCTKQRKKGSHGLEIFQRCDCAKGLSCKVWKDATYSSEARLHVCQKI
notes: ACE486 framework; residues 1-20 are the signal peptide; also called pACE506
B7: ACE507 HSA-huDKK2 C2 S248N/K250S (ligand)
chain: [skipping about 600 residues]GSHIKGHEGDPCLRSSDCIEGFCCARHFWTKICKPVLHQGEVCTKQRKKGSHGLEIFQRCDCAKGLSCKVWKDATYNSSARLHVCQKI
notes: ACE486 framework; residues 1-20 are the signal peptide; Partly glycosylated at the engineered 248-NSS site; also called pACE507; S248N/K205S (as misprinted)
B8: BKM227 HSA-DKK2 ([…]) H223E (ligand)
chain: [skipping about 600 residues]GSHIKGHEGDPCLRSSDCIEGFCCARHFWTKICKPVLHQGEVCTKQRKKGSEGLEIFQRCDCAKGLSCKVWKDATYSSKARLHVCQKI
notes: ACE486 framework; residues 1-20 are the signal peptide; also called pBKM227; BKNA227
B9: BKM228 HSA-DKK2 ([…]) K216E_H223E (ligand)
chain: [skipping about 600 residues]GSHIKGHEGDPCLRSSDCIEGFCCARHFWTKICKPVLHQGEVCTEQRKKGSEGLEIFQRCDCAKGLSCKVWKDATYSSKARLHVCQKI
notes: also called pBKM228; BKNA228
B10: BKM229 HSA-DKK2 ([…]) K216E_K220E (ligand)
chain: [skipping about 600 residues]GSHIKGHEGDPCLRSSDCIEGFCCARHFWTKICKPVLHQGEVCTEQRKEGSHGLEIFQRCDCAKGLSCKVWKDATYSSKARLHVCQKI
notes: also called pBKM229; BKNA229
B11: ACE464 HSA-GS-huDKK2 C2 ([…]), wild-type (ligand)
chain: [skipping about 600 residues]GSHIKGHEGDPCLRSSDCIEGFCCARHFWTKICKPVLHQGEVCTKQRKKGSHGLEIFQRCDCAKGLSCKVWKDATYSSKARLHVCQKI
notes: From CHO cells; […] give that major form; also called pACE464
B12: BKM225 HSA-DKK2 ([…]) K220N-gly (ligand)
chain: [skipping about 600 residues]GSHIKGHEGDPCLRSSDCIEGFCCARHFWTKICKPVLHQGEVCTKQRKNGSHGLEIFQRCDCAKGLSCKVWKDATYSSKARLHVCQKI
notes: ACE486 framework; residues 1-20 are the signal peptide; K220N was designed as a glycosylation motif; also called pBKM225; HSA-huDKK2 C2 K220N
B13: BKM226 HSA-DKK2 ([…]) K220E (ligand)
chain: [skipping about 600 residues]GSHIKGHEGDPCLRSSDCIEGFCCARHFWTKICKPVLHQGEVCTKQRKEGSHGLEIFQRCDCAKGLSCKVWKDATYSSKARLHVCQKI
notes: ACE486 framework; residues 1-20 are the signal peptide; also called pBKM226
B14: BKM230 HSA-DKK2 ([…]) R197E (ligand)
chain: [skipping about 600 residues]GSHIKGHEGDPCLRSSDCIEGFCCAEHFWTKICKPVLHQGEVCTKQRKKGSHGLEIFQRCDCAKGLSCKVWKDATYSSKARLHVCQKI
notes: ACE486 framework; residues 1-20 are the signal peptide; also called pBKM230
B15: BKM231 HSA-DKK2 ([…]) K202E (ligand)
chain: [skipping about 600 residues]GSHIKGHEGDPCLRSSDCIEGFCCARHFWTEICKPVLHQGEVCTKQRKKGSHGLEIFQRCDCAKGLSCKVWKDATYSSKARLHVCQKI
notes: ACE486 framework; residues 1-20 are the signal peptide; also called pBKM231; BKNA231
B16: BKM232 HSA-DKK2 ([…]) K216S_H223T (ligand)
chain: [skipping about 600 residues]GSHIKGHEGDPCLRSSDCIEGFCCARHFWTKICKPVLHQGEVCTSQRKKGSTGLEIFQRCDCAKGLSCKVWKDATYSSKARLHVCQKI
notes: ACE486 framework; residues 1-20 are the signal peptide; also called pBKM232; BKNA232
B17: BKM233 HSA-DKK2 ([…]) K216S_K220S (ligand)
chain: [skipping about 600 residues]GSHIKGHEGDPCLRSSDCIEGFCCARHFWTKICKPVLHQGEVCTSQRKSGSHGLEIFQRCDCAKGLSCKVWKDATYSSKARLHVCQKI
notes: also called pBKM233; BKNA233

Tests used:
[1] = biological target: T2, human LRP6 on huLRP6-expressing BaF3 cells (human, UniProt O75581 20-1613); assay: FACS competition on huLRP6-expressing BaF3 cells; free LRP6 detected with anti-LRP6 antibody YW211.31.57
T2 construct: whole, on cells; also called Lipoprotein receptor like protein 6

[2] = biological target: T3, LRP6 of Super TopFlash (STF, HEK293) cells (UniProt O75581 20-1613, limits assumed); assay: cell-based or functional assay
[3] = biological target: T1, Recombinant human Kremen-2 (R&D …); assay: ELISA, Kremen-biotin on plate-coated variant, against ACE464
[4] = biological target: T3, LRP6 of Super TopFlash (STF, HEK293) …; assay: cell-based or functional assay; remark: listed apart in the source
[5] = biological target: T1, Recombinant human Kremen-2 (R&D …); assay: ELISA, Kremen-biotin on plate-coated HSA-huDKK2-C2

| Binder | IC50 [1] | IC50, inhibition of Wnt3a stimulated Super TopFlash luciferase reporter [2] | Percent of ACE464 binding @ 5 µg/ml [3] | % pLRP6/LRP6 at 1000 nM HSA-DKK2 [4] | binding result [5] |
| --- | --- | --- | --- | --- | --- |
| B1 | 59 nM | 92 nM | – | – | – |
| B2 | 120 nM | 96 nM | 64% | – | – |
| B3 | – | 410 nM | 40% | – | – |
| B4 | 140 nM | 57 nM | 62% | 64% | – |
| B5 | 1000 nM | 190 nM | 80% | 81% | – |
| B6 | 300 nM | 170 nM | 122% | – | – |
| B7 | 42 nM | 66 nM | 117% | – | – |
| B8 | 21 nM | 34 nM | 63% | – | – |
| B9 | 300 nM | 130 nM | 52% | 73% | – |
| B10 | 800 nM | 150 nM | 49% | 110% | – |
| B11 | 72 nM | 51 nM | – | 68% | binds |
| B12 | – | 130 nM | 53% | – | – |
| B13 | 51 nM | 130 nM | 44% | – | – |
| B14 | 900 nM | – | 73% | – | – |
| B15 | 400 nM | 300 nM | 87% | – | – |
| B16 | 61 nM | 110 nM | 64% | – | – |
| B17 | 65 nM | 82 nM | 34% | 79% | – |
